The other results are listed elsewhere or left out.
Test system: PfHDP1 homeodomain (GST-tagged)
Assay: gcPBM binding intensity (ln(normalized median fluorescence intensity)); higher = stronger DNA binding
Summary of the method: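 Probes on an Agilent 4 × 180k array were primer-extended, double-stranded and 36 bp long, taken from intergenic genomic regions, with negative controls added. GST-tagged P. falciparum DNA-binding domains from E. coli, about 25 μg on average, were applied to the array for 1 h in 1× PBS containing 1% milk, 0.2 mg/ml BSA, 0.5% salmon testes DNA and 0.03% Triton X-100. Binding intensity, obtained after Alexa488 anti-GST antibody detection and a 488 nm scan, is the highest Masliner-normalised natural-log median intensity across replicate spots of either probe orientation.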

Sequence	gcPBM binding intensity (ln)
TACAAAAAAAAAGAACGTACAAAAAATTTCAAAAAT [XGTACX_site5860]	6.37
GGTATACTCAAGTATACACACATATATATATATATA [CACACA_site5746]	9.47
AAAATATATTAAGGCACACACATACAGATATATATA [CACACA_site5951]	7.03
TACGTGAAATTATATACACACATAAATATGGGTGTA [CACACA_site5687]	6.57
TACATACACAAATACACACACAAATACATACCCAAA [CACACA_site4550]	7.29
TTTTTTCTTTTTTTTTTTTTTTTCTTTTTTTTTTTT [GTGCAC_negctrl_site196]	5.96
AAGAAAATGTATATATGTACATACAATCAAAAGAAG [XGTACX_site3454]	7.24
AAATATATATTCATGTGTACACACAAAAAAAAATAA [XGTACX_site4552]	7.82
AAAAATTTTCAAGTGTGTACATATTTTCATTTAACA [XGTACX_site6186]	6.43
TAATAAAAAATTAAAAAAAATAAAAATAAAAATAAA [GTGCAC_negctrl_site78]	6.38
CATACATATACTTTGTGTACATATATATATTATATA [XGTACX_site97]	6.8
ATGTATATATTTTTATGTACATATTTTTAATTTATA [XGTACX_site2982]	5.72
TTTTTATTTAGCTAAGCATGCTAACGATGACACTTC [TGCATGCA_site79]	6.46
TTTATACTTTTAAATTGTACTATAAAAAGGAATACA [XGTACX_site2537]	6.35
AAGAAAAAGTATCCTCTATCTTTATATAAACTATTA [TGCATGCA_negctrl_site2]	5.95
GAATATTCAACATAATGTACAAGTATTCATTTCTTT [XGTACX_site7860]	6.3
TAATAAACTTAAAAATGTACATATATTTATTATTAC [XGTACX_site4321]	6.26
AAAATTCATAAATACACACACGCACATATATATATA [CACACA_site4227]	9.07
CAAAAATAAAAGAAATGTACAAAAAATAATAAAAAA [XGTACX_site6597]	6.69
TATATGTAGATTAAACGTACTTACAACGGAATTATC [XGTACX_site3036]	6.67
TGCCATCATATCATAGGTACACAAACATATAAAGAA [XGTACX_site4137]	7.05
AAATGTTCAGAAACTATTATAAAAATGGAATAATAT [CACACA_negctrl_site1544]	6.56
GTATTATATTTTAATACACACCCAAATATTAAAAAG [CACACA_site8968]	6.79

Sequence	gcPBM binding intensity (ln)
TTATGCTCAAAGAAAAGTACATAAATAAAAGTATAT [XGTACX_site7365]	7.62
TTAACAAATAAATGCACACATATATATAAATAATAT [CACACA_site28]	9.43
CTTAATATGGATATTGCATGTAGAACATGAACAATA [TGCATGCA_site760]	6.29
TAAATATTATATTTATGTACATAAGTTTTTTTTAAT [XGTACX_site3559]	6.53
TATATCTATTTCAAATGTACTTATATGATTCTTATA [XGTACX_site6277]	6.31
AGCTACAAAAATTAATATATATATGTATAGTTATAC [TGCATGCA_negctrl_site531]	6.25
AGTTTAATTTTGTATACACACATTTGAATTATTAAT [CACACA_site7625]	6.91
AAATTACTGTAAAAAAGTACAGAAGTTCTTATTTTT [XGTACX_site7416]	5.9
GTTCATATAATAAAATGTACATAATATATTATATAT [XGTACX_site7623]	6.4
TAAAAGTTGAAGCACACACACAAAAGAAATACAATA [CACACA_site6649]	7.21
ATTGAGGCTGGTTATATAATAATTTTATTATTTTAG [GTGCAC_negctrl_site409]	6.32
ATATATTTATATTTTTGTACCCAAAATTGTTTGATG [XGTACX_site3581]	6.45
TATCTCCACAAAAGATGTACTCATATTAATTTATAA [XGTACX_site3535]	6.02
GTATACAACATATGAACACACAAAATATTTTTTTTT [CACACA_site2928]	6.63
TTAAAGCTTGCATATACACACATACATAAATTCATA [CACACA_site7208]	6.89
TTTTTTTTTTTTTATTGTACATACTTTTAAATATAT [XGTACX_site4303]	6.59
GTATATAAATAAATAGTGCATTATTAAAAATAATGT	9
TATATAATATATTTATGTACTCACAATGGGGTCTAC [XGTACX_site2691]	7
ATAAATAAAGGACACACACACACACTAATAAAAAAA [CACACA_site8840]	7.04
TTTGTTATATTTAATACACACATATTATAAACACAT [CACACA_site7703]	6.88
TATGAAAAGTAAAGTACACACAGGAAAAAAAAAAAA [CACACA_site1749]	6.48
TAAACACCCATACATACACACATACATACACCCATA [CACACA_site5125]	6.91
TTCTTCAATATATTCTTACACACTTAAAAAAAAAAA [CACACA_site228]	6.55

Sequence	gcPBM binding intensity (ln)
ATATATATATATATATGTACATAATGCATATAATAT [XGTACX_site6142]	9.28
GAAGGAAAAGATACGATAAAATAAGATATTAATTTA [GTGCAC_negctrl_site419]	6.01
TTAATACTTTTTTCTGTACACACTTGATTTACTATA [CACACA_site2799]	6.69
TTTTTTTTTTATTGTACATGCAAAAAATTCCACACA [TGCATGCA_site279]	6.47
AGCATATTATTTTAGGTGCACTTGAAATGTGTTAAC	9.32
TTTAAATAAAATATTACACACTTAGAAAGATATATA [CACACA_site7684]	6.06
CAAATAAAAACAAAACGTACGAATAAATTATTGTTA [XGTACX_site5136]	6.73
ATATATAAAAATTAGGTGCATTAAATTAAAATATAT	9.74
CACATATAAATATTAACACACATAATGAATTATATA [CACACA_site2741]	6.23
TATTTGATCTAAAGAGCATGCAAAAACGAACAAGAT [TGCATGCA_site136]	8.36
ATATCGTTATTTTTATGTACTAAAATATTTAATTAT [XGTACX_site3516]	7.03
AAATTGGTTCATCAATGTACATGTAAAATAAATCAA [XGTACX_site4795]	6.67
TAATGAGGAAATACAGCACACGTTATTACACTTTTC [CACACA_site5399]	6.45
AATAATGTTATAAATTGTACGTGTATTATTCATTAC [XGTACX_site894]	6.39
TATATTTATCCATACAAGAAAAAAAAAAAAAAAATA [CACACA_negctrl_site1328]	6.16
TACACCCACCCACATACACACACATACACATATATA [CACACA_site8503]	7.42
CCACTTAAAATAAAAAGTACATACAGGTGTTATACA [XGTACX_site8124]	6.11
TCAATATTAAATTATTGTACATGTATGTATATATAT [XGTACX_site3861]	7.01
TTTTTTTTTTTTTTTTTACACACTTTATTCAAACAA [CACACA_site9360]	6.44
ATAAAATATATATATATAAAAATAAATACATAAATA [GTGCAC_negctrl_site157]	6.31
CAAACAAACAGACACACACACACACCCAAAAATGAT [CACACA_site2430]	6.79
TTTATATAAATTTTTTGTACACAAGTAAAAACGCGT [XGTACX_site2459]	6.64
ACACAAATAAATATAACATATATATTATATTATATT [CACACA_negctrl_site710]	6.68

Sequence	gcPBM binding intensity (ln)
TATATATATATATATACACACATACAGATATATATT [CACACA_site4629]	9.36
TATATAAGAACTTTTACACACATGAAAATGTAGATA [CACACA_site7711]	6.28
TTACTATTATTATTTTTTATTTTTATTTTATTTATT [TGCATGCA_negctrl_site269]	6.45
CACTAAAAGAAACACACACACACACCCATATATATA [CACACA_site4151]	6.95
ATATACACATATACATGTACAAATATATATACACAT [XGTACX_site2986]	6.9
TATTTAAAATAATGTGCAAAAGAATAAATAAATAAA [TGCATGCA_negctrl_site194]	10.3
TTGTAAGAAAGACACACACACACATATAAATATGTA [CACACA_site6516]	6.51
TTCATTTTCATATATTGTACAAAATTTTATAAGGTT [XGTACX_site4522]	6.99
TAAAATAAAAAAGTAGTACACACTTCACGATATTTT [CACACA_site3896]	6.1
AATATAAAACTTTAGAGTACTTATCATTAAAATATA [XGTACX_site4509]	6.1
TTAAAAGTAAGCAAAGTGCATATAACAAAAGTAAAG	8.67
ATTAATAATGAAAAAAAACACACGGTACATTCAAAG [CACACA_site1302]	6.75
GGAACAAATAATATCACACATATATATATATATATA [CACACA_site5670]	9.48
ATATATTTTATACATACACACATATAAATATTTTTT [CACACA_site7780]	6.83
TACGCAACCAAAAGTTGTACTAATTTTTTTTTTTTG [XGTACX_site7432]	6.45
TAATAAATATATTGAAGTACTTATAAAAAGCAATAT [XGTACX_site6262]	7.22
TATTAAACTTGACACACACACACACGCATATATAAA [CACACA_site6496]	7.01
TACGGGAAAGATAAGAAACACACGGAAAATTAGACG [CACACA_site1661]	7.15
TTTTTTAATACATATGCATGTTCAAGTACGAAAAAA [TGCATGCA_site641]	6.35
ATATATATATATAATACACACTAAAGTAACATAATA [CACACA_site5580]	8.8

— the supplement of paper PMC11417369
